Over roughly 33,000 sequences, “E-score (dimensionless, -0.5 to 0.5)” has its median near -0.058; the highest 2% begin near 0.35. The list shows a part of the results.
The sequences below were run on MvaT (assay: PBM 8-mer E-score (mean of HK and ME arrays) (E-score (dimensionless, -0.5 to 0.5)); higher = stronger relative binding preference; most listed sequences are background and not binding sites).
Method in brief: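 Reported values are rank-based E-scores, taken as the mean of two universal arrays and parsed with a custom script. Each 8-mer score falls between -0.5 and 0.5. The arrays, ME and HK, were double-stranded 60-mers with a constant 25-mer primer region and a variable 35-mer region covering all 8-mers. They were probed, by an earlier protocol, with full-length P. aeruginosa MvaT carrying an N-terminal glutathione S-transferase fusion.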

Sequence	PBM 8-mer E-score
ACGAAACG	-0.0475
ACATAGTG	0.0877
GACTAACC	-0.0953
GCTGCTTA	0.0449
CCGTTTTA	-0.0465
CCAATTGG	-0.00824
ATAGGCCA	-0.122
AAAACTCT	0.0469
CACTCGCA	-0.113
CGGTGGGA	-0.0568
CCCACAAC	-0.0863
CTAATGGC	-0.00928
ATTCACTG	-0.0332
AGCGTGCA	-0.173
CACCGGGG	-0.14
GATACTGC	-0.105
CCCTGTAG	-0.287
AGACGTCC	-0.219
ATCTGAAA	0.134
ACCATTGA	-0.0569
AAGCAAGA	0.0647
TAAGTCAA	0.125
GACAATCC	0.0147
CTTATAGA	0.0191
ATGCTAGC	-0.0196

Sequence	PBM 8-mer E-score
AGTACTGA	0.123
CAATTGGA	0.139
ATGGTTTC	-0.00565
ACCGGGCG	-0.204
CACATTCA	0.168
CCAAAAAC	0.0844
AGATCTCG	-0.173
AATCAGTC	-0.0674
CAGACCGC	-0.243
ACTATCAG	-0.00533
CGGCCCGA	-0.249
CAACCCCC	-0.326
AACGCAAG	-0.0605
CGAATAAG	0.122
CAACACGA	0.00572
CAAGTCCA	-0.0879
GTATCGTA	-0.0264
GCCTACGA	-0.271
ACCACGCC	-0.151
TCGACCGA	-0.118
AAGTCTGA	-0.121
CGAGGCCG	-0.0886
CAGCCATA	0.00647
CACAGAAC	-0.155
GTGTCTCA	-0.134

Sequence	PBM 8-mer E-score
CTAGGGAC	-0.298
AGGAGAAG	-0.116
CTTGTCAA	-0.126
AATAATAT	0.453
AGCCATTC	-0.0191
AGTACGAC	0.0103
CCACATGG	-0.261
CACGTGTA	-0.0409
GACATCTA	0.0712
AGGCGCCT	-0.21
ATGAGAAG	0.00319
AGCTGTTG	-0.0862
TCGAGTAA	0.105
ACGCGAGC	-0.0351
CAAACTGG	-0.021
GAGGTCCA	-0.236
TTGGAAAA	0.114
AGGCAATA	0.0479
CTTGGGTC	-0.169
ACGGGGAT	-0.00987
AACGAATA	0.147
CACCCTCG	-0.138
GCAGTAGC	-0.117
ATGATCCG	0.0148
AGTGGTAC	-0.00144

Sequence	PBM 8-mer E-score
CCTGCCAG	-0.294
ACGTTCCG	-0.172
GTTCCGGA	-0.0817
AGAGGATA	0.0844
AGAATAGG	-0.0847
AAAACGAC	0.0691
ATGCAGCG	-0.132
CAAAGGTG	-0.183
GGCCAGCA	-0.243
CCCCCCGC	-0.255
GGCAGGCC	-0.31
GCTGTGCA	-0.156
CTTTCCTC	-0.139
GCGACCCA	-0.225
AATCCTAT	0.0221
CCAGGTTC	-0.21
CCCAATCC	-0.26
CCATCAGC	-0.219
GGAGACAA	-0.172
ATGTATGC	0.132
CCGTACGC	-0.105
ATCCCCAT	-0.272
CAAGGGAG	-0.251
AAGCCGGT	-0.0176
GCGGGAGC	-0.292

Sequence	PBM 8-mer E-score
CGTCCTAG	-0.236
AAAGACTA	0.0896
TATTGTGA	0.147
AGCTTCGC	-0.24
ACTAGACA	0.0835
CGTAGATC	-0.27
ATCTAATA	0.321
CCCCATCA	-0.158
CAGCTATC	-0.264
AACGTCGG	-0.221
ATAGCTTA	0.133
CATGATGC	-0.011
ATGGCTAG	-0.0701
CCGTGCGC	-0.2
AGGAGACC	-0.273
CGTGTGCC	-0.144
GCAGCCCC	-0.208
ATGGCGCG	-0.156
ACCTTACG	-0.123
GGATATTA	0.332
AGATGCAT	0.142
CAACTCAG	0.128
AACCGAGA	-0.147
AGTAATGC	0.166
CTCCCCAC	-0.296

Sequence	PBM 8-mer E-score
CACGCGGG	-0.257
CGAGGCTC	-0.144
CTAGCGGA	-0.0407
GTAAACCA	0.151
ATTCGTAG	0.0187
ATTTTCAG	0.142
TCGACAAA	0.123
GCTAGCCC	-0.143
ATCCTCTA	0.0674
GGTAAGAA	0.131
TACGTACA	0.0981
AAGTCAGG	0.0458
ACTTGCGG	0.0733
ACCAGCTG	-0.119
AAGATAGA	0.0659
CAGGTATA	0.101
CATATCAA	0.174
GGCCCCAA	-0.195
CGCTAGGC	-0.268
AGCCGAAT	-0.149
AACGCTGG	-0.0857
ACGTATTC	0.118
AGGTACGC	-0.211
CCTTATCG	-0.112
GCTTCGCC	-0.274

Sequence	PBM 8-mer E-score
CTTTTGCA	-0.04
CACCCAAA	0.0556
ACCAATAA	0.302
CTGCGTAA	-0.0347
CCATAGGA	-0.168
TCCAGGAA	0.00133
AAATTCAG	0.207
GTGCAAAA	-0.0129
AGTCAGCG	-0.00964
GAACCACC	-0.171
ATCCAGAG	-0.138
GTCGGAGA	-0.273
ACTGCTGC	-0.128
TCCCCTAA	-0.157
TCGCAAGA	0.0435
CTTGACGC	-0.229
ATTGAGCA	0.0361
AAGCTGTA	-0.0137
GTACAAGA	0.038
AGCTGTTA	-0.0546
AGAACCCT	-0.274
CAAATAGA	0.264

— the supplement of paper PMC4466236
